Patent US20130203167A1 (SYRACUSE UNIVERSITY, published 2013)

What was measured:
full-length WDR5 [1] = molecular target: T1, full-length WDR5 (UniProt P61964); test: sedimentation velocity analytical ultracentrifugation, c(s) distribution of the mixture with WDR5
full-length WDR5 [2] = molecular target: T1, full-length WDR5; test: as above; remark: listed apart in the source
[3] = molecular target: WDR5-RbBP5-Ash2L subcomplex (UniProt P61964; Q15291; Q9UBL3 1-534); test: sedimentation analysis
full-length WDR5 [4] = molecular target: T1, full-length WDR5; test: sedimentation velocity analytical ultracentrifugation

B1: MLL^3745 with E-23 of SEQ ID NO. 26 replaced with alanine (E-3767 on MLL1) (enzyme)
chain: not shown
notes: The result sentence calls this residue 'glutamine'
binding result (full-length WDR5 [1]): binds

B2: MLL^3745 with S-19 of SEQ ID NO. 26 replaced with alanine (printed as corresponding to S-3762 on MLL1) (enzyme)
chain: not shown
binding result (full-length WDR5 [2]): binds

B3: MLL^3745(R3765A) (enzyme)
chain: not shown
notes: also called MLL1(R3765A) variant; 26 replaced with alanine
binding result [3]: no binding

B4: MLL^3811, polypeptide construct consisting of […] of MLL1 (enzyme)
chain: not shown
binding result (full-length WDR5 [4]): no binding (tested: 1:1 stoichiometric ratio)
